According to patent US20190345207A1 (Pieris, published 2019):
Numbering of substitutions follows the chain as printed.

T1: human LAG-3 on CHO cells stably transfected with huLAG-3 (CHO-huLAG-3) (human, UniProt P18627 23-525)
T1 construct: whole, on cells; also called CHO::human LAG-3
T1 sequence (looked up): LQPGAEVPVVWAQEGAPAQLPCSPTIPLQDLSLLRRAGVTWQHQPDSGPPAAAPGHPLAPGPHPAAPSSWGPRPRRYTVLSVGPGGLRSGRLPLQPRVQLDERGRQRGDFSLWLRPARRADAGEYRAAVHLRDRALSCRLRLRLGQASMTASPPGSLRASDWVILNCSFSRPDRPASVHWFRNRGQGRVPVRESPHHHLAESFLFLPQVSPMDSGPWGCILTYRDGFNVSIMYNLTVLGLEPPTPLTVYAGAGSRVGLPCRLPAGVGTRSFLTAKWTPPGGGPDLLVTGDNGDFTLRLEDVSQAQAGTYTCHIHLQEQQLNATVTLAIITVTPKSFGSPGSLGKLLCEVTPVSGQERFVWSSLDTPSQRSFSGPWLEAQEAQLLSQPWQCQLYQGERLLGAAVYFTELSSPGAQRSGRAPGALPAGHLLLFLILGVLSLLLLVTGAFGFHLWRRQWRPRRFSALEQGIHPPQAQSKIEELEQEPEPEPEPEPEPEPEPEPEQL

T2: huLAG-3-Fc (human LAG-3 extracellular domain fused to human IgG1 Fc fragment, R&D systems) (human, UniProt P18627 23-450)
T2 construct: extracellular domain; Bought from R&D Systems; also called human LAG-3-Fc fusion; not shown: human IgG1 Fc fragment
T2 sequence (looked up): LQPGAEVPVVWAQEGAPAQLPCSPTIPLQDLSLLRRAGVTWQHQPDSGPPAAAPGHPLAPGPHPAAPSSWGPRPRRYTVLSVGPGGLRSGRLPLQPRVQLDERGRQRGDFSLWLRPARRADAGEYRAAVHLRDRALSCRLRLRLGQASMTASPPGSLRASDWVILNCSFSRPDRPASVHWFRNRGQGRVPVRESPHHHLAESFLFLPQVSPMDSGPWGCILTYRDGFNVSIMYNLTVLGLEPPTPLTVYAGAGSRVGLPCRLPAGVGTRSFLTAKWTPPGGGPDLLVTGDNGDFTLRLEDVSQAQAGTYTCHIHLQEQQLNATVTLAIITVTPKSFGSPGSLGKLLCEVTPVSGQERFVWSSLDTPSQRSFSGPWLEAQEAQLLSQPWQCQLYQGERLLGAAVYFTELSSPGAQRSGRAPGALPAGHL

B1: negative control lipocalin mutein (SEQ ID NO: 3) (designed binder)
chain: ASDEEIQDVSGTWYLKAMTVDRECPEMNLESVTPMTLTTLEGGNLEAKVTMLISGRSQEVKAVLEKTDEPGKYTADGGKHVAYIIRSHVKDHYIFYSEGECHGKPVPGVWLVGRDPKNNLEALEDFEKAAGARGLSTESILIPRQSETSSPG
notes: Negative control hTlc mutein
B2: lipocalin mutein SEQ ID NO: 28 (designed binder)
chain: ASDEEIQDVPGTWYLKAMTVSDEDPEMTLESVTPMTLTTLEGGNLEARVTVLIDGRCQEVKNVLEKTDEPGKYTEDGGKLVDYIIRSHVKDHYIFYFEGEGQGTPGRMLALVGRDPTNNLEALEDFEKAAGARGLSTESILIPRQSETCSPGSAWSHPQFEK
notes: also called optimized LAG-3 specific lipocalin mutein
B3: lipocalin mutein SEQ ID NO: 92 (designed binder)
chain: ASDEEIQDVSGTWYLKAMTVDSDCFWIDDVSVTPMTLTTLEGGNLEAKVTMDIFGFWQEVEAVLERTDEPGKYTADGGKHVAYIIRSHVKDHYIFYSEGECAGYPVPGVWLVGRDPKNNLEALEDFEKAAGARGLSTESILIPRQSETSSPGSAWSHPQFEK
notes: as for B2
B4: lipocalin mutein SEQ ID NO: 85 (designed binder)
chain: B3 chain with A1T, E4Q, E65G, R66K, V81A, S150A
notes: as for B2
B5: lipocalin mutein SEQ ID NO: 86 (designed binder)
chain: B3 chain with A1T, G42D, R66K, V81A, S146G
notes: as for B2
B6: lipocalin mutein SEQ ID NO: 87 (designed binder)
chain: B3 chain with D3G, E61K, R66K, V81D, R144W, T148P
notes: as for B2
B7: lipocalin mutein SEQ ID NO: 88 (designed binder)
chain: B3 chain with A1T, V49A, R66K, A75T, Y93H
notes: as for B2
B8: lipocalin mutein SEQ ID NO: 89 (designed binder)
chain: B3 chain with E59D, E61K, R66K, V81D, R86S, H92N, L120Q
notes: as for B2
B9: lipocalin mutein SEQ ID NO: 90 (designed binder)
chain: B3 chain with T12M, L40H, R66K, I85S
notes: as for B2
B10: lipocalin mutein SEQ ID NO: 91 (designed binder)
chain: B3 chain with E59D, R66K, Q145L
notes: as for B2
B11: lipocalin mutein SEQ ID NO: 93 (designed binder)
chain: B3 chain with A1T, R66K, D76G, I85N, I94V
notes: as for B2
B12: lipocalin mutein SEQ ID NO: 94 (designed binder)
chain: B3 chain with I6F, R66K, E69A, I85N, V89E
notes: as for B2
B13: lipocalin mutein SEQ ID NO: 19 (designed binder)
chain: ASDEEIQDVPGTWYLKAMTVSGEDPEMMLESVTPMTLTTLEGGNLEARVTVLIDGRCQEVKNVLEKTDEPGKYTEDGGKHVDYIIRSHVKDHYIFYFEGEGQGTPGRMVALVGRDPTNNLEALEDFEKAAGARGLSTESILIPRQSETCSPG
notes: Parental LAG-3 specific hTlc mutein; also called parental lipocalin mutein
B14: SEQ ID NO: 11 (designed binder)
lipocalin mutein: TSDEEIQDVSGTWYLKAMTVDSDCFWIDDVSVTPMTLTTLEGGNLEAKATMDIFGFWQEVEAVLEKTDEPGKYTTDGGKHVAYIIRSHVKDHHIFYSEGECAGYPVPGVWLVGRDPKNNLEALEDFEKAAGARGLSTESILIPRQSETSSPGP
notes: written as printed on the sheet

biological target: T1, human LAG-3 on CHO cells stably …; assay: FACS on CHO-huLAG-3 cells

Binder | binding result
B1 | no binding (tested: 1 uM)

biological target: T1, human LAG-3 on CHO cells stably …; assay: FACS on transfected CHO cells

Binder | EC50 [nM]
B2 | 2.19
B3 | 0.76
B4 | 0.22
B5 | 1.52
B6 | 0.95
B7 | 0.18
B8 | 0.85
B9 | 0.02
B10 | 0.61
B11 | 0.69
B12 | 0.53
B13 | 4.09

biological target: T3, cynomolgus LAG-3 on CHO cells stably transfected with cyLAG-3 (CHO-cyLAG-3) (cynomolgus monkey); assay: FACS on transfected CHO cells
T3 construct: whole, on cells; also called CHO::cynomolgus LAG-3

Binder | EC50 [nM]
B2 | 21
B3 | 111
B4 | 9.8
B5 | 21.2
B6 | 21.1
B7 | 9.3
B8 | 41.7
B9 | 103
B10 | 74.3
B11 | 42.7
B12 | 117
B13 | 26.2

biological target: T2, huLAG-3-Fc (human LAG-3 extracellular …); assay: SPR, Fc-captured target, mutein analyte
Procedure: The anti-human IgG Fc antibody (GE Healthcare) was immobilized on a CM5 sensor chip using standard amine chemistry: the carboxyl groups on the chip were activated using 1-ethyl-3-(3-dimethylaminopropyl)-carbodiimide (EDC) and N-hydroxysuccinimide (NHS). […] Residual non-reacted NHS-esters were blocked by passing a solution of 1M ethanolamine across the surface. The reference channel was treated in an analogous manner.
All measurements were performed at 25° C. […] Prior to the protein measurements, three startup cycles were performed for conditioning purposes. […] Double referencing was used and the 1:1 binding model was used to fit the raw data.

Binder | Kd [nM] | koff [s⁻¹] | kon [M⁻¹ s⁻¹]
B2 | 0.883 | 0.000409 | 463000
B3 | 0.146 | 0.000809 | 5.54e+06
B4 | 0.053 | 0.00028 | 5.3e+06
B5 | 0.077 | 0.00037 | 4.78e+06
B6 | 0.087 | 0.000508 | 5.85e+06
B7 | 0.05 | 0.000288 | 5.81e+06
B8 | 0.095 | 0.000467 | 4.93e+06
B9 | 0.13 | 0.000618 | 4.75e+06
B10 | 0.119 | 0.000662 | 5.56e+06
B11 | 0.105 | 0.000463 | 4.41e+06
B12 | 0.144 | 0.0007 | 4.87e+06
B13 | 2.74 | 0.000718 | 262000

biological target: T2, huLAG-3-Fc (human LAG-3 extracellular …); assay: competition FACS, 3 nM huLAG-3-Fc vs MHC class II on A375 cells

Binder | IC50 [nM]
B2 | 0.55
B3 | 0.23
B4 | 0.38
B5 | 0.78
B6 | 0.32
B7 | 1.4
B8 | 0.58
B9 | 0.25
B10 | 0.39
B11 | 0.29
B12 | 0.41
B13 | 1.2

biological target: T3, cynomolgus LAG-3 on CHO cells stably …; assay: FACS on Flp-In CHO cells stably transfected with cynomolgus LAG-3; bound mutein detected with rabbit anti-TLPC Alexa 488; GeoMean [Fl1-H Log] against concentration [nM] [lower panel]

Binder | EC50 (read off the curve) [nM]
B14 | ~10
